From PMC4336329 (PLoS ONE, 2015)
In all, about 310,000 compounds went through this assay and about 2,200 (0.71%) showed an effect of 50% or more. The effect is printed as a negative number. Some of the results follow.

The compounds below were run against human ether-à-go-go-related gene (hERG) potassium channel (human, UniProt Q12809) (assay: primary screen, population patch clamp on CHO cells stably expressing hERG).
Sequence of human ether-à-go-go-related gene (hERG) potassium channel (Q12809 whole entry, looked up): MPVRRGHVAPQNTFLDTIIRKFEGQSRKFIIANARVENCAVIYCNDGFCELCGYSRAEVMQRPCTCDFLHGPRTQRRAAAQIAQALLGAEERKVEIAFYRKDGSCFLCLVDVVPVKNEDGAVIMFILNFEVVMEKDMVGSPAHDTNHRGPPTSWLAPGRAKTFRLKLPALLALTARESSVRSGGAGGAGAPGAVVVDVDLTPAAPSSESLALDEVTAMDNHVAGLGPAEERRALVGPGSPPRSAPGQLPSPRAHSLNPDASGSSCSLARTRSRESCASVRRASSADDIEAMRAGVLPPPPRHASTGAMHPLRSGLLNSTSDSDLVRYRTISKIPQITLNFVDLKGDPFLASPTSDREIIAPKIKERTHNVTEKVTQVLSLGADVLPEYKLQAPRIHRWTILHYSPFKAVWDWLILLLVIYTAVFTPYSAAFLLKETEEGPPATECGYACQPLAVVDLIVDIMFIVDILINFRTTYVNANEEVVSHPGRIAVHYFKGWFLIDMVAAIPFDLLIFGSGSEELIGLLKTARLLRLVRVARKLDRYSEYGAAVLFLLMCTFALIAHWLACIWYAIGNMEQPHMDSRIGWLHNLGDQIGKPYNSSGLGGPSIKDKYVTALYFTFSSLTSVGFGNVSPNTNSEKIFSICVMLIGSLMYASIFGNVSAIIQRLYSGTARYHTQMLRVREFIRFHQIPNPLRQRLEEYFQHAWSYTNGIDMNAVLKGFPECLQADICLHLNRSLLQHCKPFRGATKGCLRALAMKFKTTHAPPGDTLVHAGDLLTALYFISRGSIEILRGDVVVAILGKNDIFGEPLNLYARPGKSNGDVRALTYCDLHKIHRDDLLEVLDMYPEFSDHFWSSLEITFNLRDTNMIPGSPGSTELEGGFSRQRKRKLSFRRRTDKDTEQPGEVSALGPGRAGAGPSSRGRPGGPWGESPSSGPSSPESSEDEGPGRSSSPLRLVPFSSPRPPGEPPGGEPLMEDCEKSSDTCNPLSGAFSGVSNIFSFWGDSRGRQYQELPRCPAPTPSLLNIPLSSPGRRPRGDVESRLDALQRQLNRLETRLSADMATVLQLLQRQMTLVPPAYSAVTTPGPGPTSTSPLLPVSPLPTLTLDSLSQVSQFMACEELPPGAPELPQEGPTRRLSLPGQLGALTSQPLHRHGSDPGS
In the case of `Cc1cccc(Cn2nnc3c2C(=O)c2ccccc2C3=O)c1`, the “hERG current change (%, negative = inhibition) at 1uM” value is reported as 21.5%. With `Cc1nn(C(C)(C)C)c(NC(=O)c2ccc(Cl)cc2)c1Br` the “hERG current change (%, negative = inhibition) at 1uM” value was 9.25%. With `Cc1nccn1CC(=O)N/N=C/c1cccc(O)c1` the “hERG current change (%, negative = inhibition) at 1uM” value was 20.6%. In the case of `Cc1ccc(NC(=O)c2ccc(Cl)c(S(=O)(=O)NCC3CCCO3)c2)c(O)c1` (stereo not drawn), the “hERG current change (%, negative = inhibition) at 1uM” value is reported as 9.14%. In the case of `COC(=O)CSC(=S)N1CCCC(C)C1` (stereo not drawn), the “hERG current change (%, negative = inhibition) at 1uM” value is reported as 6.18%. With `COc1ccc(OC)c(NC(=O)Nc2cccc3ccccc23)c1` the “hERG current change (%, negative = inhibition) at 1uM” value was 9.59%. For `CCn1c2ccccc2c2nnc(SCC(=O)Nc3ccc4c(c3)OCO4)nc21`, the “hERG current change (%, negative = inhibition) at 1uM” value was 10.8%. In the case of `O=C(/C=C/c1ccccc1)NCCSCc1ccccc1`, the “hERG current change (%, negative = inhibition) at 1uM” value is reported as 5.07%. In the case of `Cc1ccc(Nc2nc(N)c([N+](=O)[O-])c(N3CCOCC3)n2)cc1`, the “hERG current change (%, negative = inhibition) at 1uM” value is reported as 5.55%. `Cc1cccc(OC(=O)c2ccncc2)c1C` was tested, and the “hERG current change (%, negative = inhibition) at 1uM” value was 10.5%. With `C=CCOC(=O)C1=C(C)NC(SCC(=O)NC(=O)OCC)=C(C#N)C1c1cccnc1` (stereo not drawn) the “hERG current change (%, negative = inhibition) at 1uM” value was 7.17%. With `CC1(C)Cc2c(sc3nc(N/N=C/c4ccccc4)[nH]c(=O)c23)CO1` the “hERG current change (%, negative = inhibition) at 1uM” value was 8.46%. For `COc1ccc(CN2C(=O)c3cccnc3C2=O)cc1S(=O)(=O)NCc1ccc(C)cc1`, the “hERG current change (%, negative = inhibition) at 1uM” value was 12.6%. With `N#Cc1c(NC(=O)CSc2nnc(-c3ccco3)n2-c2ccccc2)sc2c1CCC2` the “hERG current change (%, negative = inhibition) at 1uM” value was 0.511%. For `Clc1ccc(COc2ccccn2)c(Cl)c1`, the “hERG current change (%, negative = inhibition) at 1uM” value was 7.33%. `CCOC(=O)CC1C(=O)NCCN1C(=O)c1ccc(Cl)cc1` (stereo not drawn) was tested, and the “hERG current change (%, negative = inhibition) at 1uM” value was 9.74%. With `Cc1ccc(S(=O)(=O)N(CC(=O)Nc2cccnc2)c2ccc(Br)cc2)cc1` the “hERG current change (%, negative = inhibition) at 1uM” value was -6.71%. For `COC(=O)CNC(=O)COC(=O)c1ccc(OC)c([N+](=O)[O-])c1`, the “hERG current change (%, negative = inhibition) at 1uM” value was 14.4%. For `Cc1ccc2oc(=O)c3cc(C(=O)N4CCN(C(=O)c5ccco5)CC4)sc3c2c1`, the “hERG current change (%, negative = inhibition) at 1uM” value was -17.4%. `C[C@H](NC(=O)c1nc[nH]c1C(=O)N1CCN(C(=O)OC(C)(C)C)CC1)C(=O)OCc1ccccc1` was tested, and the “hERG current change (%, negative = inhibition) at 1uM” value was -0.216%. `CCN1CCN(CCCNC(=O)CCCn2nc(C)c3sc4ccccc4c3c2=O)CC1` was tested, and the “hERG current change (%, negative = inhibition) at 1uM” value was 17.4%. With `COCCSc1nnc(NC(=O)Cc2ccc(OC)cc2)s1` the “hERG current change (%, negative = inhibition) at 1uM” value was 13.7%. In the case of `COc1ccc(-c2noc(C(C)n3nc(C)c([N+](=O)[O-])c3C)n2)cc1OC` (stereo not drawn), the “hERG current change (%, negative = inhibition) at 1uM” value is reported as 8.63%. For `CC(C)c1ccc(O)c(NC(=O)c2cncc(Br)c2)c1`, the “hERG current change (%, negative = inhibition) at 1uM” value was 0.77%. `COC(=O)Nc1nnc(/C=C/c2ccc(OC)cc2)s1` was tested, and the “hERG current change (%, negative = inhibition) at 1uM” value was -1.57%. In the case of `Cc1ccc(NC(=O)CN(C)C(=O)c2ccc(NS(=O)(=O)c3ccc4[nH]c(=O)[nH]c4c3)cc2)cc1`, the “hERG current change (%, negative = inhibition) at 1uM” value is reported as -4.52%. `Cc1cc(C)nc(SCc2nnc(SCC#N)n2-c2cccc(Cl)c2)n1` was tested, and the “hERG current change (%, negative = inhibition) at 1uM” value was 3.2%. In the case of `O=C(COC(=O)c1cccc(Br)c1)Nc1cccc2c1C(=O)c1ccccc1C2=O`, the “hERG current change (%, negative = inhibition) at 1uM” value is reported as 8.3%. `COc1ccccc1-n1c(SCC(=O)NC2CCCC2)nc2cccnc21` was tested, and the “hERG current change (%, negative = inhibition) at 1uM” value was 8.49%. In the case of `CCCOc1ccc(CC(=O)NNC(=S)Nc2ccccc2)cc1Br`, the “hERG current change (%, negative = inhibition) at 1uM” value is reported as 12.5%. `CC(=O)c1sc2nc(-c3cccs3)ccc2c1N` was tested, and the “hERG current change (%, negative = inhibition) at 1uM” value was 14.2%. In the case of `CC1(C)Cc2c(c(=S)nc(-c3ccccc3)n2Cc2cccnc2)CO1`, the “hERG current change (%, negative = inhibition) at 1uM” value is reported as 11.3%. `COc1ccc(CN2CCNC(=O)C2CC(=O)NC2CCOCC2)c(F)c1` (stereo not drawn) was tested, and the “hERG current change (%, negative = inhibition) at 1uM” value was 0.0127%. `Cc1cc(=O)n(-c2ccc(O)cc2)[nH]1` was tested, and the “hERG current change (%, negative = inhibition) at 1uM” value was 2.58%. In the case of `CCOC(=O)c1sc(=S)n(-c2ccccc2)c1N`, the “hERG current change (%, negative = inhibition) at 1uM” value is reported as -1.76%. For `COc1ccc(CC(NC(C)=O)C(=O)NC2CCN(C(=O)Nc3ccccc3C)CC2)cc1OC` (stereo not drawn), the “hERG current change (%, negative = inhibition) at 1uM” value was 11.2%. In the case of `CCSc1nc(-c2ccccc2)cc(=O)[nH]1`, the “hERG current change (%, negative = inhibition) at 1uM” value is reported as 7.5%. With `COc1ccccc1CNCCc1ccc(F)cc1.O=C(O)C(=O)O` the “hERG current change (%, negative = inhibition) at 1uM” value was 0.243%. `CC1(N(O)C=C2C=CC(=O)C=C2)CCCCC1=O` (stereo not drawn) was tested, and the “hERG current change (%, negative = inhibition) at 1uM” value was 2.49%. `COc1ccccc1C1CC(c2ccco2)=NN1S(C)(=O)=O` (stereo not drawn) was tested, and the “hERG current change (%, negative = inhibition) at 1uM” value was 8.44%. `CCC(C)(NC(=O)Cc1c[nH]c2ccccc12)C(=O)NC1CCCCC1` (stereo not drawn) was tested, and the “hERG current change (%, negative = inhibition) at 1uM” value was 1.82%. With `Cc1ccc(S(=O)(=O)/N=C(\Nc2cccc(C)c2)Nc2nc(C)cc(C)n2)cc1` the “hERG current change (%, negative = inhibition) at 1uM” value was 13.8%. In the case of `Br.Cc1ccc(C)c(C(=O)CN2C3=NCCCN3c3ccccc32)c1`, the “hERG current change (%, negative = inhibition) at 1uM” value is reported as -43%. In the case of `O=C1NC(=O)N(CCNc2ncc(C(F)(F)F)cc2Cl)C(=O)C1/C=N/OCc1c(F)cccc1Cl` (stereo not drawn), the “hERG current change (%, negative = inhibition) at 1uM” value is reported as 7.62%. In the case of `CN(Cc1ccc(F)cc1Cl)S(=O)(=O)c1cccs1`, the “hERG current change (%, negative = inhibition) at 1uM” value is reported as 4.71%.
